Among the data in the supplement of paper PMC4604168 (melanoma cell lines) are cell count values, retold here.

Molecules are shown by their SMILES. This is one part of the list. Single values are uncertain, as repeats are few or missing.
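Further: cells treated in 1,536-well plates, then fixed and DAPI-stained, with nuclei counted from automated high-throughput microscope images.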

This assay concerns SkMel5. Kind of assay: cell count relative to DMSO control; melanoma cells; higher = more viable cells. The conditions noted are these: library dose: standard library concentration; 72 h.
With `CN(c1ncccc1CNc1nc(Nc2ccc3c(c2)CC(=O)N3)ncc1C(F)(F)F)S(C)(=O)=O` + O=C1NC(=O)/C(=C/c2ccc(-c3ccc(F)cc3O)o2)S1 [AS252424] (first compound 0.4 µM, partner dose 5 µM), the cell count stood at 71%.

Compound `CS(=O)(=O)c1ccc(C(=O)Nc2ccc(Cl)c(-c3ccccn3)c2)c(Cl)c1` [vismodegib] + CCN(CC)CCCCNc1ncc2cc(-c3cc(OC)cc(OC)c3)c(NC(=O)NC(C)(C)C)nc2n1 [PD173074] (first compound 5 µM, partner dose 0.5 µM) had a cell count of 110%.

On to `C=C(c1ccc(C(=O)O)cc1)c1cc2c(cc1C)C(C)(C)CCC2(C)C` [Bexarotene] + O=c1cc(-c2cccc3c2Sc2ccccc2S3)oc(N2CCOCC2)c1 [KU55933] (first compound 10 µM, partner dose 5 µM), for which the cell count turned out to be 103%.

In turn, `NC1(c2ccc(-c3nc4ccn5c(=O)[nH]nc5c4cc3-c3ccccc3)cc2)CCC1` + O=c1cc(-c2cccc3c2Sc2ccccc2S3)oc(N2CCOCC2)c1 [KU55933] (first compound 2 µM, partner dose 5 µM) came in with a cell count of 57.7%.

Turning to `NC1(c2ccc(-c3nc4ccn5c(=O)[nH]nc5c4cc3-c3ccccc3)cc2)CCC1` + COc1cc2ncnc(Nc3ccc(Oc4ccccc4)cc3)c2cc1OC [SrcI1] (first compound 2 µM, partner dose 10 µM), the cell count amounted to 39.2%.

The compound `CCCS(=O)(=O)Nc1ccc(F)c(C(=O)c2c[nH]c3ncc(Cl)cc23)c1F` + COc1ccc(COc2ccc(Cc3cnc(N)nc3N)cc2OC)cc1 [GW2580] (first compound 0.4 µM, partner dose 5 µM) displayed a cell count of 67%.
